# Measurements reported in PubChem BioAssay AID504332 (National Center for Advancing Translational Sciences (NCATS), 2011).
# Among all 350,000 compounds or so, about 31,000 (8.9%) were called active. This list was built around the results that the source calls inconclusive (neither active nor inactive); the mix of calls is not that of the screen. Calls follow the shape of the dose curve; as a rule, active = well fitted inhibition curve with a large enough effect; inconclusive = small, poorly fitted or top-dose-only effect; inactive = no such curve, though single readings can be large or run the other way. A potency beside an inconclusive call is a rough fit, not a confirmed value.
# Biological target: Histone-lysine N-methyltransferase EHMT2 (Homo sapiens) (UniProt Q96KQ7)
# Sequence of UniProt Q96KQ7 (Q96KQ7 whole entry, looked up): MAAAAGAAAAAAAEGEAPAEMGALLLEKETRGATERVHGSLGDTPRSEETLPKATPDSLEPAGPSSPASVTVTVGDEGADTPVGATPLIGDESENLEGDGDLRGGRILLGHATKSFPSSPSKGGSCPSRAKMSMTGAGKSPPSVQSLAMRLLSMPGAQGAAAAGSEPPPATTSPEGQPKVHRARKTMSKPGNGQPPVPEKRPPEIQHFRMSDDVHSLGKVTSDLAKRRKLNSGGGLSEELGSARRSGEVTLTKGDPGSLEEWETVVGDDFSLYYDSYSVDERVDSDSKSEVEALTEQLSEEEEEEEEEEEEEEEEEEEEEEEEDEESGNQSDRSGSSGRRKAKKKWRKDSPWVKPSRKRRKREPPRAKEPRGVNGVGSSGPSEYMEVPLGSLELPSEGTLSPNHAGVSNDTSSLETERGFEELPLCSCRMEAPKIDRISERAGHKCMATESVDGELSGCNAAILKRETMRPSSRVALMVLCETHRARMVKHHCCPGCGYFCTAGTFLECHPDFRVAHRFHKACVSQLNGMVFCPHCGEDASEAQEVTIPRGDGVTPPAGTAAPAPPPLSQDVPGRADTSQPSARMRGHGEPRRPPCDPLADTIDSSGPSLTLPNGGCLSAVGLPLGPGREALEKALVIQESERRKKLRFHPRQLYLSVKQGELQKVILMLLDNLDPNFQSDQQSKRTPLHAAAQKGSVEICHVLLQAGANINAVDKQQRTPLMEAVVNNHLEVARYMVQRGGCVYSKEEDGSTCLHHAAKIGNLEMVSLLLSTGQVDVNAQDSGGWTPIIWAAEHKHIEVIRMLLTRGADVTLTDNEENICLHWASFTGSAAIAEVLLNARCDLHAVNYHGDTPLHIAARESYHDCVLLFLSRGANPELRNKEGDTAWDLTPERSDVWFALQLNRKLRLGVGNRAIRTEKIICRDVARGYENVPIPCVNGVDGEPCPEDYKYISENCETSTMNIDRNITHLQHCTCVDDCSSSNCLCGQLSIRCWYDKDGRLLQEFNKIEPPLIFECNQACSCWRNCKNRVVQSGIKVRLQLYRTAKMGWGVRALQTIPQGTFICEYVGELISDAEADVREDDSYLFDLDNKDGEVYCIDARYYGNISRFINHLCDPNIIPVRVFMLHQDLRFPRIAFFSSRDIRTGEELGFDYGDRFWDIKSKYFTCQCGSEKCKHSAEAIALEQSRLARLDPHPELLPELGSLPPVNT
# Assay: qHTS Assay for Inhibitors of Histone Lysine Methyltransferase G9a; also: nearly all actives have a fitted effect of over 75% in size
# Settings: G9a H3K9 monomethylation, AlphaScreen, 2 h; activity, negative = inhibition: at 59 µM (top of the series) unless noted
# Method in brief: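 Readings reflect AlphaScreen signal from monomethyl-H3K9 antibody detection. HMT at 20 nM; substrate b-H3K9 500 nM; cofactor SAM 20 uM; 2 h RT reaction; compounds tested as titrations in qHTS with 15 min preincubation.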
# % is scaled to controls: 0 for no effect and ±100 for the full control effect; potency is read from the fitted curve at half-maximal effect; tags tell the direction and shape of the fitted curve.
SMILES,Potency,"activity, negative = inhibition"
CSS(=O)(=O)c1cccc2cccnc12,active: 0.282 µM,–
COc1ccccc1C(=O)NCCC(=O)NN1C(=O)NC2(CCCCC2)C1=O,active: 50.1 µM,–
CCN(CC)c1ccc(/C=N/NC(=O)c2c[nH]c3ccccc23)cc1,active: 8.91 µM,–
CC(C)N(C(=O)Cn1cc(S(=O)(=O)CC(=O)NC2CCCCC2)c2ccccc21)C(C)C,"inconclusive: 79.4 µM [inhibitor, partial curve, poor fit]",–
COc1ccc(S(=O)(=O)N2CCC(C(=O)NC3(C)CCS(=O)(=O)C3)CC2)cc1OC (stereo not drawn),"inconclusive: 70.8 µM [inhibitor, single point]",–
Cc1ccc(-n2c3c(cc(-c4nc(-c5ccc(Cl)cc5)cs4)c2=O)C(=O)CC(C)(C)C3)cc1C,active: 15.8 µM,–
O=C(c1cc(F)ccc1F)C1CCCN(C(=O)c2ccc3nccnc3c2)C1 (stereo not drawn),"inconclusive: 79.4 µM [inhibitor, single point]",–
COc1cc(CC(=O)Nc2sccc2C(N)=O)cc(OC)c1OC,"inconclusive: 89.1 µM [inhibitor, single point]",–
O=C(COC(=O)c1cnccn1)NCCc1ccc(Cl)cc1,"inconclusive: 50.1 µM [inhibitor, partial curve]",–
CCN(CC)S(=O)(=O)c1ccc2oc(Nc3ccc(OC)cc3)nc2c1,inactive,–
CCCn1cc(SCC(=O)NCc2ccco2)c2ccccc21,active: 39.8 µM,–
N#CC1(NC(=O)CN2c3cccc4cccc(c34)S2(=O)=O)CCCCC1,"inconclusive: 2.24 µM [inhibitor, full curve, poor fit]",–
O=C1NCC(c2ccccc2)C1C(=O)N/N=C/c1ccc(Cl)s1 (stereo not drawn),"inconclusive: 39.8 µM [inhibitor, partial curve, poor fit]",–
COc1ccc(CCN(C)C(=O)CN2C(=O)NC3(CCCCC3C)C2=O)cc1OC (stereo not drawn),"inconclusive: 39.8 µM [inhibitor, partial curve, poor fit]",–
CCOC(=O)c1c(C)c(C(=O)NCc2ccco2)c(C)n1C,"inconclusive: 44.7 µM [inhibitor, partial curve, poor fit]",–
CCN1CCN(c2ccc(NC(=O)c3ccc4c(c3)[nH]c(=O)n4Cc3ccc(OC)cc3)cc2)CC1,"inconclusive: 12.6 µM [inhibitor, partial curve, poor fit]",–
CCN(CC)S(=O)(=O)c1ccc(C)c(NC(=O)COc2ccc3c(C)cc(=O)oc3c2)c1,inactive,–
O=C(NCCNCc1cccs1)c1ccccc1F,active: 6.31 µM,–
COc1cc2nc(CN3CCN(S(=O)(=O)c4c(F)cccc4F)CC3)[nH]c(=O)c2cc1OC,"inconclusive: 17.8 µM [inhibitor, single point]",–
O=C(O)c1csc(N/N=C/c2ccc(Br)cc2)n1,active: 35.5 µM,–
CCSc1oc(-c2ccco2)nc1S(=O)(=O)c1ccc(Br)cc1,"inconclusive: 15.8 µM [inhibitor, partial curve, poor fit]",–
O=C(CCn1c(=O)oc2ccc(Cl)cc21)N1CCN(Cc2ccccc2)CC1,"inconclusive: 0.355 µM [inhibitor, partial curve, poor fit]",–
Cc1ccc(-c2nn(-c3ccc(F)cc3)c3c2cnc2cc(F)c(F)cc23)cc1,inactive,–

SMILES,Potency,"activity, negative = inhibition"
COc1ccc(C(=O)/C=C/Nc2cccc(C)n2)cc1OC,"inconclusive: 20 µM [inhibitor, partial curve, poor fit]",–
Cc1ccc2nc(-c3ccc(O)cc3)c(Nc3ccc(Cl)cc3)n2c1,"inconclusive: 2.82 µM [inhibitor, partial curve, poor fit]",–
COC(=O)CCNC(=O)NC(CCC(C)C)c1c(-n2cccc2)sc2c1CCN(C)C2 (stereo not drawn),"inconclusive: 35.5 µM [inhibitor, partial curve, poor fit]",–
CCCNC(=O)[C@H]1O[C@@H]1C(=O)N[C@H](C(=O)N1CCC[C@H]1C(=O)OC)[C@@H](C)CC,inactive,–
COc1cccc(N2CCN(c3ncnc4c3[nH]c3ccccc34)CC2C)c1 (stereo not drawn),"inconclusive: 28.2 µM [inhibitor, single point]",–
OCCCNC(=S)Nc1ccc(Oc2ccccc2)cc1,"inconclusive: 39.8 µM [inhibitor, single point]",–
COc1cccc(NC(=O)CN(C)CC(=O)Nc2ccccc2-c2ccccc2)c1,active: 14.1 µM,–
Cc1ccc2nc(-c3ccccc3)cc(C(=O)N3CCN(S(=O)(=O)c4c(C)noc4C)CC3)c2c1,"inconclusive: 3.98 µM [inhibitor, partial curve, poor fit]",–
O=S(=O)(c1ccccc1)N1CCN(Cc2cc3c(cc2Br)OCCO3)CC1,–,inactive: -13.3% [at 2.33 µM]
CCOC(=O)c1ccc(Nc2ccc(-c3ccc(OC)c(OC)c3)nn2)cc1,"inconclusive: 39.8 µM [inhibitor, single point]",–
COc1cc(C=C2C(=O)OC(c3ccccc3)OC2=O)cc(Br)c1O (stereo not drawn),"inconclusive: 89.1 µM [inhibitor, single point]",–
Nc1ncnc2sc3c(c12)CCNC3,"inconclusive: 44.7 µM [inhibitor, partial curve]",–
O/N=C/CCn1c(=S)sc2ccccc21,"inconclusive: 79.4 µM [inhibitor, single point]",–
COC(=O)c1cc2oc(C)cc2n1CC(=O)N1CCCc2ccccc21,"inconclusive: 10 µM [inhibitor, partial curve, poor fit]",–
Cc1ccc(N2CC(C(=O)Nc3nnc(SCc4ccccn4)s3)CC2=O)cc1 (stereo not drawn),active: 44.7 µM,–
COc1ccc(/C=N/NC(=O)c2ccncc2)cc1Cn1nc([N+](=O)[O-])c(Br)c1C,"inconclusive: 35.5 µM [inhibitor, full curve]",–
Cc1c(C(=O)N2c3ccccc3CC2C)oc2ccccc12 (stereo not drawn),inactive,–
Cc1ccc(CCNC(=O)c2c[nH]c3ccc(S(=O)(=O)Nc4ccc(C)cc4C)cc3c2=O)cc1,–,inactive: -24.6% [at 12.7 µM]
COc1ccc(-n2c(Cc3cccn3C)nnc2SCC(=O)NCC2CCCO2)cc1 (stereo not drawn),"inconclusive: 0.631 µM [inhibitor, full curve, poor fit]",–
Clc1ccccc1N/N=C/c1ccc2c(c1)OCO2,active: 8.91 µM,–
CCOC(=O)c1sc(NNC(=O)c2ccc(C)cc2)nc1C,"inconclusive: 35.5 µM [inhibitor, partial curve, poor fit]",–
O=C(c1ccc(CS(=O)(=O)c2ccc(Br)cc2)o1)N1CCN(C2CCCCC2)CC1,"inconclusive: 89.1 µM [inhibitor, single point]",–
CCOc1ncccc1C(=O)OCC(=O)c1cc(C)n(Cc2ccco2)c1C,"inconclusive: 25.1 µM [inhibitor, single point]",–

SMILES,Potency,"activity, negative = inhibition"
CCOc1ccc(C2C(C(=O)c3ccco3)=C(O)C(=O)N2CCCn2ccnc2)cc1 (stereo not drawn),–,inconclusive: -61.2% [inhibitor]
CC(C)OC(=O)/C(=C/c1ccc(Br)cc1)NC(=O)c1ccco1,inactive,–
CCCCCCC(=O)Nc1cc2c(C)cc(=O)oc2cc1C,–,inconclusive: -54.6% [inhibitor]
COc1ccc(NC(=O)c2oc3ccccc3c2CSC)cn1,"inconclusive: 70.8 µM [inhibitor, single point]",–
COc1ccc(-c2cccc(NS(=O)(=O)c3ccc(C)s3)c2)nn1,inactive,–
Nc1nnc(SCn2nnc3ccccc3c2=O)s1,active: 28.2 µM,–
Cc1cc(C)cc(NS(=O)(=O)c2ccc(-n3cccn3)cc2)c1,inactive,–
Cc1ccc(C(=O)N/N=C/c2ccc(S(=O)(=O)O)o2)c(Cl)c1,"inconclusive: 2.82 µM [inhibitor, full curve, poor fit]",–
CC1CN(S(=O)(=O)c2ccc(NC(=O)CCN3C(=O)c4ccccc4C3=O)cc2)CC(C)O1 (stereo not drawn),"inconclusive: 1.78 µM [inhibitor, full curve, poor fit]",–
CCN1CCc2c(sc(N)c2C(N)=O)C1,–,inconclusive: -112% [inhibitor]
Cc1cc[n+](CC(=O)c2cccs2)cc1,"inconclusive: 2.51 µM [inhibitor, partial curve, poor fit]",–
CCOc1ccc(C(=O)CCN2CCCCC2)cc1,active: 8.91 µM,–
Cc1ccc(CSc2nnc(Nc3ccc(C)cc3)s2)cc1,"inconclusive: 79.4 µM [inhibitor, partial curve, poor fit]",–
Nc1nnnn1/N=C/c1ccccc1,inactive,–
Cc1c(N2C(=O)CS/C2=N\N=C\c2ccc(Br)cc2)c(=O)n(-c2ccccc2)n1C,inactive,–
C[Se]CCC(N)C(=O)O (stereo not drawn),"inconclusive: 17.8 µM [inhibitor, partial curve]",–
CCC(C)c1ccc(OCCn2cc(/C=N/NC(=O)CSc3nnc(C)s3)c3ccccc32)cc1 (stereo not drawn),"inconclusive: 63.1 µM [inhibitor, partial curve, poor fit]",–
COc1ccc2[nH]c(=O)c(CN(Cc3nnnn3CCc3ccccc3)CC3CCCO3)cc2c1 (stereo not drawn),"inconclusive: 89.1 µM [inhibitor, partial curve, poor fit]",–
O=C(O)c1c(-c2ccccc2)oc2ccc(OCc3ccc(Cl)c(Cl)c3)cc12,inactive,–
COC(=O)C1=C(C)N(c2ccc(F)c(Cl)c2)C(=O)C1,"inconclusive: 25.1 µM [inhibitor, single point]",–
O=C(NC1CCCCCC1)C(Cc1ccccc1)n1cccc1 (stereo not drawn),"inconclusive: 79.4 µM [inhibitor, single point]",–
O=C(CCNS(=O)(=O)c1cccs1)N1CCN(c2cccc(C(F)(F)F)c2)CC1,–,inactive: -0.428% [at 2.33 µM]
